Measurements as given in PubChem BioAssay AID1347073 (National Center for Advancing Translational Sciences (NCATS), 2019).
About 200 (0.44%) of roughly 45,000 compounds were called active. Not shown: some 7% with an inconclusive outcome. Calls come from the whole dose curve; as a rule, active = well fitted activation curve with a large enough effect; inconclusive = small, poorly fitted or top-dose-only effect; inactive = no such curve, though single readings can be large or run the other way. This is one part of the list.

Test: qHTS of TDP-43 Inhibitors: NCGC Sytravon Library Screen; note: 0% is about no effect; nearly all actives have a fitted effect of over 55% in size
Details: yeast TDP-43 toxicity rescue, BacTiter-Glo growth, 24 h; series mostly up to 46.1 µM; growth rescue (activation): at the top concentration
How it was run: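 TDP-43-expressing yeast, pregrown in raffinose, seeded at OD600 0.02 in galactose medium with compound for 24 hr at 30 deg C. Growth read by BacTiter-Glo luminescence, so rescue of toxicity appears as activation.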

| Compound | growth rescue (activation) |
| --- | --- |
| CC(=O)C1=C(O)C(=O)N(CCCn2ccnc2)C1c1ccc(Br)cc1 (stereo not given) | inactive: 17.3% |
| O=C(Nc1ccc(Cl)cc1C(F)(F)F)C(Sc1nnc(-c2cccs2)o1)c1ccccc1 (stereo not given) | inactive: 12.7% |
| CN(CC(=O)N1CCN(c2ccccc2)CC1)S(=O)(=O)c1cccs1 | inactive: 7.12% |
| CCOC(=O)c1c(NC(=O)/C=C/c2ccc(Cl)cc2)sc2c1CCC(C)C2 (stereo not given) | inactive: 4.09% |
| NC(=O)CC(NC(=O)c1ccc(Cl)cc1)C(=O)NCCc1ccc(S(N)(=O)=O)cc1 (stereo not given) | inactive: 8.1% |
| CCCCNC(=S)N(Cc1c(C)noc1C)c1ccccc1 | inactive: 8.72% |
| CC(C)(C)c1ccc(CC(=O)N2CCC2(C)C(=O)NCc2cccc3ccccc23)cc1 (stereo not given) | inactive: -0.303% |
| O=C(C[n+]1cccc(C(=O)Nc2ccccc2)c1)c1ccc([N+](=O)[O-])cc1 | inactive: 12.3% |
| O=C(N/N=C/c1ccc(O)c(O)c1)NC12CC3CC(CC(C3)C1)C2 | inactive: 0.859% |
| O=C(NN=C1CCCCCCC1)c1ccc2ccccc2n1 | inactive: 9.52% |
| CN(C)CCCNC(=O)c1ccc(-c2cc3nc(NCc4cccnc4)n(C)c(=O)c3s2)cc1 | inactive: 14% |
| CCOc1ccc(S(=O)(=O)N2CCC(C(=O)NCc3ccccn3)CC2)cc1Cl | inactive: -4.66% |
| C=C(C)c1cccc(C(C)(C)NC(=O)NC(c2ccccc2)c2ccc(OC)cc2)c1 (stereo not given) | inactive: -14.3% |
| CC1(C)CC(=O)C(C(N)=NC(=O)c2ccccc2)=C(O)C1 | inactive: 5.07% |
| Cn1c(=O)c2cc(NC(=O)CC(C)(C)C)ccc2n1-c1ccccc1F | inactive: -2.83% |
| CNc1cnc(-c2cccc(C(=O)N3CCOCC3)c2)cn1 | inactive: -12.4% |
| CCOC(=O)C1=C(C)NC(=S)N(C(C)=O)C1c1ccc(OC)c(OC)c1 (stereo not given) | inactive: 14.2% |
| COc1cc(NC(=O)c2ccc(-c3c(C)noc3C)c3ccoc23)cc(OC)c1OC | inactive: 16.2% |
| NC(=O)c1nsc(C(=O)N(c2ccccc2)C(C(=O)NCc2ccc(F)cc2)c2ccc(O)cc2)c1N (stereo not given) | inactive: 18% |
| COCCN1C(=O)/C(=C/c2ccc(N3CCCC3)cc2C)SC1=S | inactive: 19.4% |
| CCOc1nc2ccccc2cc1/C=C/C(=O)O | inactive: 4.97% |
| CN(CC(=O)Nc1ccc(C(N)=O)cc1)S(=O)(=O)c1ccc2c(c1)OCCO2 | inactive: -2.16% |
| COc1cccc(-c2nc3ccccc3s2)c1O | inactive: 3.67% |
| O=C(NCC1CCCO1)c1ccc2[nH]c3c(c2c1)CCCC3 (stereo not given) | inactive: 25.9% |
| COc1ccc(/C(N)=N/O)c(OC)c1 | inactive: -7.78% |
| CC1CN(CC(=O)Nc2ccc([N+](=O)[O-])cc2Br)CC(C)O1 (stereo not given) | inactive: -5.75% |
| O=[N+]([O-])c1ccc(NCc2ccc3c(c2)OCO3)cc1 | inactive: 19.3% |

| Compound | growth rescue (activation) |
| --- | --- |
| Cc1cccc(Nc2nnc(SCC(=O)Nc3cccc(S(=O)(=O)N4CCCCC4)c3)s2)c1 | inactive: 11.3% |
| CCCc1nnc(NC(=O)COc2ccc3c(c2)OCO3)s1 | inactive: 10.9% |
| COc1cc(N/N=C(\C)c2ccc(O)c(C)c2)nc(-c2ccccc2)n1 | inactive: 19.4% |
| C=C(C)Cn1c(SCC(=O)N/N=C/c2ccccc2)nc2ccccc2c1=O | inactive: -5.63% |
| Nc1nonc1-n1nnc(C(=O)N/N=C/c2ccc(Cl)cc2Cl)c1CN1CCOCC1 | inactive: 2.08% |
| COc1ccc(OC)c(NC(=O)C2CC(=O)N(CCc3ccc(F)cc3)C2)c1 (stereo not given) | inactive: 4.65% |
| COc1ccc(C(=O)NC2CCCCC2)cc1OC1CCN(C(C)C)CC1 | inactive: 3.78% |
| CC(C)n1cc(CN2CCCC(C(=O)Nc3ccccc3Oc3cccnc3)C2)cn1 (stereo not given) | inactive: -21.6% |
| COc1ccc(C2(C(=O)Nc3ccc(C)c(C)c3)CCOCC2)cc1 | inactive: -13.5% |
| Cc1ccc(CN2CCNC(=O)C2CC(=O)NCCCn2cccn2)o1 (stereo not given) | inactive: 14% |
| O=c1c(-c2ccco2)[n+]([O-])c2ccccc2n1OCc1ccccc1[N+](=O)[O-] | inactive: -8.61% |
| CC(=O)N/C(=C\c1ccccc1)C(=O)OCc1cc(C)ccc1C | inactive: 3.26% |
| N#Cc1ccc(OCC(O)CN2CCN(c3ncc(C(F)(F)F)cc3Cl)CC2)cc1 (stereo not given) | inactive: 6.74% |
| COc1ccc(Cl)cc1NC(=O)CN1C(=O)CCS(=O)(=O)c2ccccc21 | inactive: 15.3% |
| COc1ccc(C(=O)NCCc2c[nH]c3ccccc23)cc1OC | inactive: -0.607% |
| O=C(Cn1cnc2ccccc2c1=O)N1CCc2ccccc2C1 | inactive: -0.171% |
| Cc1[nH]c(=O)[nH]c(=O)c1S(=O)(=O)N1CCCC(C(=O)NCCC2=CCCCC2)C1 (stereo not given) | inactive: 9.23% |
| CCOC(=O)CC1CCCCN1C(=O)CCCn1nnnc1CN1CCC(C)CC1 (stereo not given) | inactive: -6.84% |
| CC(=O)Nc1ccc(S(=O)(=O)NCC(=O)NCCCc2ccccc2)cc1 | inactive: 8.07% |
| Cc1ccccc1N(CC(=O)NC1CCCCC1)C(=O)CCC(=O)Nc1nccs1 | inactive: 14.4% |
| Cc1ccc(/C=N/NC(=O)NC2CCCCC2)o1 | inactive: 10.6% |
| CCOC(=O)C1(CCc2ccccc2)CCN(Cc2cnc(N(C)C)s2)CC1 | inactive: 7.23% |
| COc1ccc(CC(=O)NCc2nnc(SCC(=O)c3ccc(OC)cc3)n2C)cc1 | inactive: -2.05% |
| O=C1NC(=O)/C(=C\c2ccc(N3CCOCC3)o2)N1 | inactive: -9.82% |
| N=c1c2c3c(sc2ncn1Cc1ccccc1)CCCC3 | inactive: 3.92% |
| CCC(=O)Nc1ccc(NC(=S)Nc2ccccc2)cc1 | inactive: 17.3% |
| COCCn1c(=N)c(C(=O)NCc2ccco2)cc2c(=O)n3cc(C)ccc3nc21 | inactive: 3.56% |

| Compound | growth rescue (activation) |
| --- | --- |
| CC(=O)N1C(=O)NC2=C(C(=O)CCC2)C1c1cccc([N+](=O)[O-])c1 (stereo not given) | inactive: 13.5% |
| O=C(CSc1nnc(-c2cccnc2)o1)N1CCCCC1 | inactive: 1.86% |
| CCN1CSC(=S)N(Cc2ccccc2)C1 | inactive: -13.2% |
| CC(C)N(CCNC(=O)c1oc(=O)c2ccccc2c1-c1ccccc1)Cc1ccco1 | inactive: 15.6% |
| O=C(COC(=O)[C@@H]1CCCN1S(=O)(=O)c1ccccc1F)c1ccccc1 | inactive: 19.5% |
| Cc1ccnc(SCC(=O)c2cccs2)n1 | inactive: -4.63% |
| CCCOP(=O)(c1ccc(N(C)C)cc1)C(O)c1ccc(N(C)C)cc1 (stereo not given) | inactive: -12.3% |
| CC(C)Oc1ccc(CN2CCC2(C)C(=O)NCc2cccc3ccccc23)cc1 (stereo not given) | inactive: 10.6% |
| CCOC(=O)CC(NS(=O)(=O)c1ccc(OC)c(OC)c1)c1cccc([N+](=O)[O-])c1 (stereo not given) | inactive: 18.5% |
| CCOC(=O)c1c(NC(C)=O)c2c3c(sc2n1Cc1nc(-c2cccc(C)c2)oc1C)CCCC3 | inactive: 13.8% |
| COc1cccc(NC(=O)NCCc2ccc(Cl)cc2)c1 | inactive: 23.8% |
| COc1ccc(NC(=O)CSc2n[nH]c(=O)n2Cc2ccccc2)cc1Cl | inactive: 16.9% |
| CSCC(=O)N1CCCC(CNC(=O)c2ccccc2Cl)C1 (stereo not given) | inactive: -17% |
| O=C(Nc1ccc(S(=O)(=O)N2CCOCC2)cc1)c1c(F)cccc1F | inactive: 6.14% |
| COc1ccc(CCC(=O)N2CCCC(Nc3ccccc3)C2)cc1OC (stereo not given) | inactive: 9.61% |
| CCN(CC)S(=O)(=O)c1ccc2c(c1)N(CC(=O)N(CCc1ccncc1)C(C)C)C(=O)CO2 | inactive: 9.42% |
| CN(Cc1ccon1)C(=O)CCc1nnc(Cc2ccc(-c3ccccc3)cc2)o1 | inactive: 10.9% |
| COC(=O)c1ccc(OC(=O)c2ccco2)cc1 | inactive: 12.1% |
| S=C(NCc1ccco1)N1CCN(C/C=C/c2ccccc2)CC1 | inactive: 4.85% |
| COc1ccc(N(C)C(=O)c2cc(S(=O)(=O)N3CCc4ccccc43)cn2C)c(OC)c1 | inactive: 2.88% |
| CC(=O)N1CCN(S(=O)(=O)c2ccc(C)cc2)C1C (stereo not given) | inactive: 28.4% |
| O=C(/C=C/c1cccs1)Nc1ccc([N+](=O)[O-])cc1 | inactive: 14.9% |
| COCCNC(=O)C(c1ccccc1F)N(C(=O)C(=O)NC1CCCC1)C1CCCCC1 (stereo not given) | inactive: 2.91% |
| C=CCN(C)NC(=O)Nc1ccccc1 | inactive: 1.89% |
| Cc1ccc(Cl)cc1NC(=O)CCS(=O)(=O)c1ccc2c(c1)n(C)c(=O)c(=O)n2C | inactive: -9.98% |
| CC(=O)Nc1ccc(N2CCCC(C)C2)c([N+](=O)[O-])c1 (stereo not given) | inactive: 7.1% |
| S=C(NCC1CCCO1)Nc1ccccc1 (stereo not given) | inactive: 3.16% |

| Compound | growth rescue (activation) |
| --- | --- |
| Cc1cc(C)c(C#N)c(SCCN2CCCCC2)n1 | inactive: 4.52% |
| O=Cc1cn(-c2ccccc2)nc1-c1cc2ccccc2oc1=O | inactive: 1.02% |
| COC(=O)CCN(C(=O)C12CC3CC(CC(C3)C1)C2)c1ccccn1 | inactive: 22.6% |
| COCCNC(=O)C(c1ccc(OC)cc1)N(Cc1ccco1)C(=O)CCC(=O)Nc1ccccn1 (stereo not given) | inactive: 3.08% |
| CN(CCO)S(=O)(=O)c1ccc2c(c1)C(=NO)c1cc(S(=O)(=O)N(C)CCO)ccc1-2 | inactive: 1.5% |
| Cc1ccc(OCCC(=O)OCC(=O)Nc2cc(S(=O)(=O)N(C)C)ccc2C)cc1 | inactive: 13.5% |
| CC(C)N1CCN(S(=O)(=O)c2ccccc2)CC1 | inactive: -14.3% |
| Nc1ccccc1SCC(=O)Nc1cccc2ccccc12 | inactive: 23.7% |
| O=C(CC(=O)c1ccccc1)Nc1ccccc1C(F)(F)F | inactive: -6.58% |
| O=C(Nc1ccc(C(=O)N2CCOCC2)cc1)c1ccc([N+](=O)[O-])cc1 | inactive: 10.7% |
| Cc1ccc(NC(=O)COC(=O)C2(c3ccc(Cl)cc3)CCCC2)cc1 | inactive: 16% |
| Cc1cccc(NC(=S)NNc2cccc(Cl)c2)c1 | inactive: 29.1% |
| Cc1[nH][nH]c(=O)c1C(c1ccc(-c2ccc(Cl)c(C(=O)O)c2)o1)c1c(C)[nH][nH]c1=O | inactive: -7.99% |
| Cc1ccc(OCC(=O)NCCCNC(=O)c2ccccn2)cc1C | inactive: 19% |
| O=C(CNC(=O)c1ccccc1F)OCC(=O)N1CCCCC1 | inactive: 4.78% |
| CN(CC(=O)Nc1ccc(Cl)c(Cl)c1)C(=O)C1CCC1 | inactive: 8.11% |
| CC(C)c1nc(SCC(=O)NC2CCCCC2)c2ccccc2n1 | inactive: 16% |
| COc1ccccc1CCc1nnc(CCC(=O)NCC[C@@H]2C[C@@H]3C=C[C@H]2C3)o1 | inactive: -2.08% |
| Cn1nc(C(F)(F)F)c(CNC(=O)C(C)(C)CCl)c1N1CCOCC1 | inactive: 19.8% |
| COc1ccccc1CNC(=O)C1CCN(S(=O)(=O)c2ccc(-n3cnnn3)cc2)CC1 | inactive: 14.1% |
| CCCCCn1c(=O)[nH]c2cc(C(=O)NCCN3C(C)CCCC3C)ccc2c1=O (stereo not given) | inactive: -2.62% |
| CC1(C)O[C@H]2[C@@H](O1)[C@@H](C(=O)Nc1cc(F)ccc1F)O[C@@H]1OC(C)(C)O[C@@H]12 | inactive: 6.5% |
| C/C(=N/NC(=O)CNC(=O)c1ccccn1)c1ccc([N+](=O)[O-])cc1 | inactive: 9.51% |
| COc1ccc(/C=N/Nc2nc(Nc3ccccc3)nc(N3CCCC3)n2)cc1[N+](=O)[O-] | inactive: 6.05% |
